Common to all, as to assay: protein-binding microarray (PBM)
What all share (conditions): PBM: ~300 nM protein, 6 mM HEPES pH 7.8, 80 mM KCl, 0.5 mM EDTA, 0.5 mM EGTA, 6% glycerol, 35 ng/ul poly-dIdC, 1% milk, 1 h, room temperature; Ap Aiptasia and Nv Nematostella (sea anemones) / Co Capsaspora / Aq Amphimedon (sponge) / Dm Drosophila / Hu human; RHD is the Rel homology domain; high values mean tight binding; most listed sequences are background and not binding sites; double strand, one strand shown

The target in one assay is T1, GST-Ap-NF-kB RHD (UniProt A0A913YAJ5).
T1 sequence: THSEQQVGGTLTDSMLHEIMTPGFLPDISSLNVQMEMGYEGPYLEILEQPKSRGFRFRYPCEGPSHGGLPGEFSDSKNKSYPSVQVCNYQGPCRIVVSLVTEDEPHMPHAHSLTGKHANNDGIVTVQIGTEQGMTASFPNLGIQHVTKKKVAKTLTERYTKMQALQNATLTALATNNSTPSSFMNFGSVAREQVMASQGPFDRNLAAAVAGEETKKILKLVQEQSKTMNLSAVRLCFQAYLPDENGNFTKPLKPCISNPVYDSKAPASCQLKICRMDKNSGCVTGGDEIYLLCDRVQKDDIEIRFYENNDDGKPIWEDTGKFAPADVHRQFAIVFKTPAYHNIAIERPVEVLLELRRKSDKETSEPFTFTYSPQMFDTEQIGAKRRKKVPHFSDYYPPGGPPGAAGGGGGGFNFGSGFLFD

Assay [1] deals with T2, GST-Nv-NF-kB (Cys allele) (UniProt E5G601).
T2 sequence: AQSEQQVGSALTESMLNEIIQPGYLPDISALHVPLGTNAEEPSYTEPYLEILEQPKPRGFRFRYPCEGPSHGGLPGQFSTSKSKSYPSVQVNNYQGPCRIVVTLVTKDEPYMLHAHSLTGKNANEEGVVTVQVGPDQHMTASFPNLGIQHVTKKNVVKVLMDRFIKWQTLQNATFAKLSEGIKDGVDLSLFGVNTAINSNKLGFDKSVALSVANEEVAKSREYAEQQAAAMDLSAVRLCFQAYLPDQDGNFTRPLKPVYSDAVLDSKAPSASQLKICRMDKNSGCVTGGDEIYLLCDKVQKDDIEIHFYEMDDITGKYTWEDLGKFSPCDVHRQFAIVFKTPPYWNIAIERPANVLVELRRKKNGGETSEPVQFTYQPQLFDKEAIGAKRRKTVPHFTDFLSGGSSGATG

A further assay concerns the target T3, GST-Co-NF-kB (UniProt F1ARL5).
T3 sequence: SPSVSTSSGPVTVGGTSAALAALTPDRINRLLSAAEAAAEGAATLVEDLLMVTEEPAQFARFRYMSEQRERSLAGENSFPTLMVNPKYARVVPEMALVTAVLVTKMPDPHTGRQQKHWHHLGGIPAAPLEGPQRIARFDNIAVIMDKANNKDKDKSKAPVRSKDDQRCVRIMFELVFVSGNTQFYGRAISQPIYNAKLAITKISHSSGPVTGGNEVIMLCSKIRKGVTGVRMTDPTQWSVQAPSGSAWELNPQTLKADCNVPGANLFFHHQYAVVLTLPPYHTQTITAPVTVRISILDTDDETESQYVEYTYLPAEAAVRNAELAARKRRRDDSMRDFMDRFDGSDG

The target of the next assay is T4, GST-Dm-Relish (UniProt Q94527).
T4 sequence: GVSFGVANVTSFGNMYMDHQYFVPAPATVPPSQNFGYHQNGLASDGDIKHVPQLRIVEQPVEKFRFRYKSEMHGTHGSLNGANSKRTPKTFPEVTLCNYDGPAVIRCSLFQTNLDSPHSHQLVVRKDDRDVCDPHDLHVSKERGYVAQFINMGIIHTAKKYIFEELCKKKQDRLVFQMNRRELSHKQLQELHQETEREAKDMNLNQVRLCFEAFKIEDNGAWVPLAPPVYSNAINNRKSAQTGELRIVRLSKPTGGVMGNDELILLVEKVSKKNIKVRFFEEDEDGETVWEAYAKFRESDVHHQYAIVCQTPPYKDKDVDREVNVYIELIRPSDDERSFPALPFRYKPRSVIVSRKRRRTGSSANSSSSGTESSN

Another assay has as its target T5, GST-Aq-NF-kB (UniProt A9Y5G7).
T5 sequence: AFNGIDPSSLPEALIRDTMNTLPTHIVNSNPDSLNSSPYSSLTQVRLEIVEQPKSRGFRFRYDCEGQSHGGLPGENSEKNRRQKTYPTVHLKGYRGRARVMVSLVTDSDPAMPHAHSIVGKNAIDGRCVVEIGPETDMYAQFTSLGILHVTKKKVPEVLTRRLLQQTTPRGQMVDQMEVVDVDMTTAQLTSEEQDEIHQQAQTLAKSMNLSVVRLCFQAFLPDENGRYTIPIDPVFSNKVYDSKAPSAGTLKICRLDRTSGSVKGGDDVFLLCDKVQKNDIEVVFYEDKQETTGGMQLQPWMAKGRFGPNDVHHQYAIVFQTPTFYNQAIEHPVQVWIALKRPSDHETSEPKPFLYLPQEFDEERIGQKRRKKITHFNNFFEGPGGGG

Only a part is listed here, and it is no random draw. The list includes weakly bound sequences.

On to “CCGATTAACATCACACACTCAGATGATGTTAATCGGGTCTTGATTCGCTTGACGCTGCTG”, for which the binding signal with GST-Ap-NF-kB RHD is 0.00105 z-score; in assay [1] it was 0.589 z-score; with GST-Co-NF-kB it was 0.971 z-score; in the assay with GST-Dm-Relish, 0.475 z-score; in the assay with GST-Aq-NF-kB, -0.103 z-score.
The matching figures for “CCGATTAACATCAGGTATTTTTATGATGTTAATCGGGTCTTGATTCGCTTGACGCTGCTG”: 1.27 z-score, 2.01 z-score, 0.3 z-score, 3.8 z-score and 2.77 z-score.
The matching figures for “CCGATTAACATCACGGGTTGCCCTGATGTTAATCGGGTCTTGATTCGCTTGACGCTGCTG”: 0.584 z-score, 0.74 z-score, 0.83 z-score, 0.572 z-score and 1.04 z-score.
Regarding “CCGATTAACATCAGAATATTCCATGATGTTAATCGGGTCTTGATTCGCTTGACGCTGCTG”, the binding signal is 0.37 z-score with GST-Ap-NF-kB RHD; -0.588 z-score in assay [1]; 0.0694 z-score in the assay with GST-Co-NF-kB; -0.0793 z-score with GST-Dm-Relish; -0.0722 z-score in the assay with GST-Aq-NF-kB.
The matching figures for “CCGATTAACATCAACTAGTACATTGATGTTAATCGGGTCTTGATTCGCTTGACGCTGCTG”: -0.0084 z-score, 0.00852 z-score, -0.156 z-score, -0.0486 z-score and -0.253 z-score.
The matching figures for “CCGATTAACATCAAGTCACGGGTTGATGTTAATCGGGTCTTGATTCGCTTGACGCTGCTG”: -0.107 z-score, -0.389 z-score, -0.538 z-score, -0.163 z-score and -0.144 z-score.
The matching figures for “CCGATTAACATCATGGCTAACCTTGATGTTAATCGGGTCTTGATTCGCTTGACGCTGCTG”: -0.29 z-score, -0.0594 z-score, -1.05 z-score, -0.792 z-score and -0.284 z-score.
“CCGATTAACATCACGGAGAATCCTGATGTTAATCGGGTCTTGATTCGCTTGACGCTGCTG”: the binding signal with GST-Ap-NF-kB RHD was -1.13 z-score; in assay [1], -1.39 z-score; with GST-Co-NF-kB, -0.636 z-score; with GST-Dm-Relish, -0.319 z-score; with GST-Aq-NF-kB, 1.18 z-score.
The matching figures for “CCGATTAACATCACGGGCATCCTTGATGTTAATCGGGTCTTGATTCGCTTGACGCTGCTG”: 0.181 z-score, -0.195 z-score, -0.548 z-score, 0.581 z-score and 0.42 z-score.
The matching figures for “CCGATTAACATCATGCCGGTATATGATGTTAATCGGGTCTTGATTCGCTTGACGCTGCTG”: -0.452 z-score, -0.641 z-score, -0.882 z-score, -0.765 z-score and -0.315 z-score.
The matching figures for “CCGATTAACATCATCTGCCAGCATGATGTTAATCGGGTCTTGATTCGCTTGACGCTGCTG”: -0.191 z-score, 0.1 z-score, -0.186 z-score, -0.595 z-score and -0.595 z-score.
In the case of “CCGATTAACATCAGTGTGTCGGATGATGTTAATCGGGTCTTGATTCGCTTGACGCTGCTG”, the binding signal is 0.0342 z-score in the assay with GST-Ap-NF-kB RHD; -0.478 z-score in assay [1]; 0.369 z-score with GST-Co-NF-kB; -0.505 z-score with GST-Dm-Relish; -0.445 z-score in the assay with GST-Aq-NF-kB.
The matching figures for “CCGATTAACATCAGGAAATTATATGATGTTAATCGGGTCTTGATTCGCTTGACGCTGCTG”: -0.267 z-score, -0.239 z-score, 0.594 z-score, 0.0223 z-score and 0.252 z-score.
With “CCGATTAACATCAGCTGAGTAGGTGATGTTAATCGGGTCTTGATTCGCTTGACGCTGCTG”, the binding signal is 0.731 z-score with GST-Ap-NF-kB RHD; -0.23 z-score in assay [1]; -0.628 z-score with GST-Co-NF-kB; 0.298 z-score with GST-Dm-Relish; 0.35 z-score with GST-Aq-NF-kB.
As for “CCGATTAACATCAATAATTTTCCTGATGTTAATCGGGTCTTGATTCGCTTGACGCTGCTG”, the binding signal in the assay with GST-Ap-NF-kB RHD is -0.14 z-score; in assay [1], 0.287 z-score; in the assay with GST-Co-NF-kB, 0.806 z-score; in the assay with GST-Dm-Relish, 0.631 z-score; in the assay with GST-Aq-NF-kB it was 0.956 z-score.
In the case of “CCGATTAACATCAGCTTTCGCTGTGATGTTAATCGGGTCTTGATTCGCTTGACGCTGCTG”, the binding signal with GST-Ap-NF-kB RHD is -0.216 z-score; in assay [1], -0.952 z-score; with GST-Co-NF-kB it was -0.805 z-score; with GST-Dm-Relish it was -0.343 z-score; in the assay with GST-Aq-NF-kB it was -0.759 z-score.
The matching figures for “CCGATTAACATCACGACCCGGGCTGATGTTAATCGGGTCTTGATTCGCTTGACGCTGCTG”: 0.359 z-score, -0.555 z-score, 0.546 z-score, -0.486 z-score and 0.124 z-score.
The matching figures for “CCGATTAACATCAAGCACAGAGCTGATGTTAATCGGGTCTTGATTCGCTTGACGCTGCTG”: -0.369 z-score, -0.431 z-score, -1.14 z-score, -0.693 z-score and -0.868 z-score.
On to “CCGATTAACATCACGGATTCTCCTGATGTTAATCGGGTCTTGATTCGCTTGACGCTGCTG”, for which the binding signal in the assay with GST-Ap-NF-kB RHD was -0.126 z-score; in assay [1] it was -0.15 z-score; with GST-Co-NF-kB it was -0.745 z-score; in the assay with GST-Dm-Relish it was -0.248 z-score; with GST-Aq-NF-kB, 0.947 z-score.
The matching figures for “CCGATTAACATCAGAGTCTGCTGTGATGTTAATCGGGTCTTGATTCGCTTGACGCTGCTG”: -0.727 z-score, -0.791 z-score, -0.846 z-score, -0.53 z-score and -0.449 z-score.
The matching figures for “CCGATTAACATCACGCGTTTTAGTGATGTTAATCGGGTCTTGATTCGCTTGACGCTGCTG”: -0.569 z-score, -0.0559 z-score, -0.336 z-score, 0.762 z-score and -0.62 z-score.
The matching figures for “CCGATTAACATCAGGAATACTCCTGATGTTAATCGGGTCTTGATTCGCTTGACGCTGCTG”: -0.636 z-score, -0.0105 z-score, -0.449 z-score, -0.139 z-score and -0.22 z-score.
Turning to “CCGATTAACATCAGATAGGTACTTGATGTTAATCGGGTCTTGATTCGCTTGACGCTGCTG”, the binding signal is 0.759 z-score in the assay with GST-Ap-NF-kB RHD; 0.404 z-score in assay [1]; -0.643 z-score with GST-Co-NF-kB; 0.686 z-score in the assay with GST-Dm-Relish; 0.294 z-score with GST-Aq-NF-kB.
The matching figures for “CCGATTAACATCAAGAGAGTTGCTGATGTTAATCGGGTCTTGATTCGCTTGACGCTGCTG”: -0.059 z-score, -0.42 z-score, 0.0232 z-score, 0.131 z-score and -0.389 z-score.
The matching figures for “CCGATTAACATCACTGGTTGCTATGATGTTAATCGGGTCTTGATTCGCTTGACGCTGCTG”: -0.43 z-score, -0.198 z-score, 0.625 z-score, -0.662 z-score and -0.293 z-score.
The matching figures for “CCGATTAACATCACGGAATTTTCTGATGTTAATCGGGTCTTGATTCGCTTGACGCTGCTG”: -0.0241 z-score, 0.481 z-score, 0.808 z-score, 1.06 z-score and 2.35 z-score.
In the case of “CCGATTAACATCAGATAAAAGAATGATGTTAATCGGGTCTTGATTCGCTTGACGCTGCTG”, the binding signal with GST-Ap-NF-kB RHD is -0.424 z-score; in assay [1], 0.641 z-score; with GST-Co-NF-kB, -0.0593 z-score; in the assay with GST-Dm-Relish, -0.091 z-score; in the assay with GST-Aq-NF-kB it was -0.395 z-score.
The matching figures for “CCGATTAACATCATGAGCAGGGATGATGTTAATCGGGTCTTGATTCGCTTGACGCTGCTG”: 0.999 z-score, -0.399 z-score, 0.511 z-score, -0.343 z-score and 0.0795 z-score.

Source of the values: publication PMC5700166.
